PMC12681845
Changes are numbered by the printed parent chain. Numbers in names are those of the source. No constants are given. Whether binding was seen depends on the method and setting. Binding seen in cells or lysates may run through a third protein. Some binding calls cover weakened binding; strength is not graded here. For part of these data: Sequences can lack the tags named with a protein.

The chains behind the UniProt entries cited, without tags or fusion partners.
UniProt Q8N6T7: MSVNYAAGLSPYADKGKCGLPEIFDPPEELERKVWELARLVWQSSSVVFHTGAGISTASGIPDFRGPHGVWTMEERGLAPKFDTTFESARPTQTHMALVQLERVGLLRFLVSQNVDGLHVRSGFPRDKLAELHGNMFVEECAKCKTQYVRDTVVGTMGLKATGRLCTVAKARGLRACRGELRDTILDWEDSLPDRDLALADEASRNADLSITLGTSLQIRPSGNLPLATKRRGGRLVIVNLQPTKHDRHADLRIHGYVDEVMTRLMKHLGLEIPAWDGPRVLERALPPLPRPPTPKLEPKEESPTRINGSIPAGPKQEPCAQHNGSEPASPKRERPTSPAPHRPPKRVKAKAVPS

B1: Transcription factor A, mitochondrial (protein, UniProt Q00059 43-246)
chain: SSVLASCPKKPVSSYLRFSKEQLPIFKAQNPDAKTTELIRRIAQRWRELPDSKKKIYQDAYRAEWQVYKEEISRFKEQLTPSQIMSLEKEIMDKHLKRKAMTKKKELTLLGKPKRPRSAYNVYVAERFQEAKGDSPQEKLKTVKENWKNLSDSEKELYIQHAKEDETRYHNEMKSWEEQMIEVGRKDLLRRTIKKQRKYGAEEC
B2: Myc-His-FoxA1^K267Q (protein, UniProt P55317 1-472)
chain: MLGTVKMEGHETSDWNSYYADTQEAYSSVPVSNMNSGLGSMNSMNTYMTMNTMTTSGNMTPASFNMSYANPGLGAGLSPGAVAGMPGGSAGAMNSMTAAGVTAMGTALSPSGMGAMGAQQAASMNGLGPYAAAMNPCMSPMAYAPSNLGRSRAGGGGDAKTFKRSYPHAKPPYSYISLITMAIQQAPSKMLTLSEIYQWIMDLFPYYRQNQQRWQNSIRHSLSFNDCFVKVARSPDKPGKGSYWTLHPDSGNMFENGCYLRRQKRFQCEKQPGAGGGGGSGSGGSGAKGGPESRKDPSGASNPSADSPLHRGVHGKTGQLEGAPAPGPAASPQTLDHSGATATGGASELKTPASSTAPPISSGPGALASVPASHPAHGLAPHESQLHLKGDPHYSFNHPFSINNLMSSSEQQHKLDFKAYEQALQYSPYGSTLPASLPLGSASVTTRSPIEPSALEPAYYQGVYSRPVLNTS
B3: His-mCherry-TFAM^K76Q (protein, UniProt Q00059 43-246)
chain: B1 chain with K34Q
B4: His-mCherry-TFAM^K76R (protein, UniProt Q00059 43-246)
chain: B1 chain with K34R
B5: His-mCherry-TFAM^K154Q (protein, UniProt Q00059 43-246)
chain: B1 chain with K112Q
B6: Myc-His-FoxA1^K267R (protein, UniProt P55317 1-472)
chain: B2 chain with Q267R
B7: His-mCherry-TFAM^K154R (protein, UniProt Q00059 43-246)
chain: B1 chain with K112R
B8: Hepatocyte nuclear factor 3-alpha (protein, UniProt P55317 1-472)
chain: B2 chain with Q267K

Target: NAD-dependent protein deacylase sirtuin-6 (human (endogenous in HCT116)) (UniProt Q8N6T7)
Test: co-IP; HCT116 cells; cytosolic, mitochondrial and nuclear fractions separated before the Co-IP; interaction reported in the mitochondrial fraction

Binder	binding
B1	binds

Target: SIRT6 in 293T cells (human) (UniProt Q8N6T7)
Test: co-IP; 293T cells transfected with the FoxA1 or TFAM point mutants; pull-down and reverse pull-down (anti-SIRT6 or anti-His antibodies for the TFAM mutants)

Binder	binding
B2	binds
B3	binds
B4	binds
B5	binds
B6	no binding
B7	no binding

Target: NAD-dependent protein deacylase sirtuin-6 (human (endogenous in HCT116)) (UniProt Q8N6T7)
Test: co-IP; HCT116 cell lysates, endogenous proteins; precleared with Protein A/G Agarose and rabbit IgG, primary antibody or control IgG overnight, SDS-PAGE and blot

Binder	binding
B8	binds
B1	binds
